Results taken from PubChem BioAssay AID463173 (ICCB-Longwood Screening Facility, Harvard Medical School, 2010).
The campaign covered roughly 52,000 compounds. About 4,300 (8.3%) were called active. Rule as the data show it: active = survival mostly below about 52% (no sharp cut-off); inactive = mostly above about 56%. Some of the results follow.

system: DeltatarO mutant; assay: S. aureus survival, RN4220 and DeltatarO strains – OD600, teichoic acid synthesis inhibitors, primary screen (AID 463173); conditions: S. aureus RN4220 wild type/DeltatarO growth, OD600, 18 h, hits give low values, screened at 18.75 µg/mL (by protocol)

SMILES | survival
COc1ccc(OC)c(NC(=O)C2=C(C)C(=O)OC23CCN(C(C)C)CC3)c1 | active: 32%
O=C(CSc1nc2c(oc3ccccc32)c(=O)n1-c1ccccc1)Nc1ccc(F)c(Cl)c1 | inactive: 86%
CC(C)(C)c1ccc(C(=O)Nc2nnc3n2CCS3)cc1 | inactive: 80%
Cc1oc2c(C)c3oc(=O)c(CCC(=O)N4CCCCC4)c(C)c3cc2c1C | inactive: 89%
Cc1cc2oc(C(=O)Nc3ccc(S(=O)(=O)N(C)c4ccccc4)cc3)cc(=O)c2cc1C | inactive: 51%
COc1cc(-c2nnc(SCCOc3ccccc3)o2)cc(OC)c1OC | inactive: 76%
CCOC(=O)Cn1c(=O)oc2cc(S(=O)(=O)Nc3ccccc3F)ccc21 | inactive: 67%
CCOC(=O)c1c(SCC(=O)Nc2cccc(C)c2C)nc(=O)[nH]c1C | inactive: 67%
CCn1c(C)c(C)c2cc(C(=O)NCCc3cc(OC)ccc3OC)ccc21 | inactive: 98%
Cc1oc2ncn(CC(C)C)c(=O)c2c1C(=O)NCCCN(C)Cc1ccccc1 | inactive: 74%
O=C(Nc1cccc(C(F)(F)F)c1)C1CCCN(S(=O)(=O)c2cccc3nonc23)C1 (centres undefined) | inactive: 91%
CCOc1ccc(CNC(=O)c2ccc3c(c2)N(Cc2ccccc2)CCS3)cc1 | inactive: 64%
NC(Cc1ccccc1)C(O)(c1ccccc1)c1ccccc1 (centres undefined) | inactive: 96%
COc1ccc2[nH]cc(NC(=O)N3CCN(C(=O)OC(C)(C)C)CC3)c(=O)c2c1 | inactive: 96%
CCOc1ccc(S(=O)(=O)N2CCC(n3c(C)nc4cccnc43)CC2)cc1 | inactive: 73%
O=C(Cn1ncc2c(Cl)cccc21)NCc1cccc(F)c1 | inactive: 112%
COc1ccc(S(=O)(=O)N(CC(=O)Nc2ccc3c(c2)OCO3)c2ccccc2)cc1 | inactive: 50%
COc1ccc(-c2noc(-c3ccc(NCCc4ccccc4)c([N+](=O)[O-])c3)n2)cc1 | active: 42%
O=C(Cn1cc(S(=O)(=O)Cc2ccccc2Cl)c2ccccc21)Nc1ccc(F)cc1F | inactive: 86%
Cc1noc(C)c1C(=O)N(c1ccccc1)C(C(=O)NC1CCCC1)c1ccc(F)cc1 (centres undefined) | inactive: 86%
CCc1ccc(S(=O)(=O)c2cn(Cc3ccc(OC)cc3)c3cc(OC)c(OC)cc3c2=O)cc1 | inactive: 73%
O=C(COc1ccc(Br)cc1)Nc1ccc(C(=O)OC2CCCCC2)cc1 | inactive: 72%
COc1ccc(NC(=O)CCc2c(C)nc3cc(-c4cccc(F)c4)nn3c2C)cc1Cl | inactive: 129%
O=C(Nc1cccnc1)C(Cc1ccccc1)N1C(=O)c2ccccc2C1=O (centres undefined) | inactive: 78%
